# Reference: PubChem BioAssay AID1347165 (National Center for Advancing Translational Sciences (NCATS), 2019)
# The whole screen tested about 220,000 compounds, of which about 5,700 (2.6%) were called active. Inconclusive means that the source gave no clear call. Such entries were picked first, then a sample of the others. Calls come from the whole dose curve; as a rule, active = well fitted inhibition curve with a large enough effect; inconclusive = small, poorly fitted or top-dose-only effect; inactive = no such curve, though single readings can be large or run the other way. Where the call is inconclusive, the potency comes from a doubtful curve fit.
# Target: Lysine-specific demethylase 5B (Homo sapiens) (UniProt Q9UGL1)
# Assay: Primary screen for KDM5B Histone Demethylases FDH-coupled qHTS; note: nearly all actives have a fitted effect of over 70% in size; for activity change, negative = inhibition: 0% is about no effect
# Conditions: FDH-coupled NADH fluorescence (FDH is formaldehyde dehydrogenase); activity change, negative = inhibition: at 57.7 µM (top of the series) unless noted
# Outline: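 Compound dilutions met 200 nM (final) KDM5BΔAP for 10 min at room temperature before substrate addition. The substrate mix held 12.5 µM H3K4me3 with cofactors 25 µM α-ketoglutarate and 50 µM Fe²⁺. NADH signal gain over 30 min defined activity.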
# Potency is the fitted concentration of half-maximal effect; tags give direction and shape of the fitted curve.
# UniProt Q9UGL1, sequence (Q9UGL1 whole entry, looked up): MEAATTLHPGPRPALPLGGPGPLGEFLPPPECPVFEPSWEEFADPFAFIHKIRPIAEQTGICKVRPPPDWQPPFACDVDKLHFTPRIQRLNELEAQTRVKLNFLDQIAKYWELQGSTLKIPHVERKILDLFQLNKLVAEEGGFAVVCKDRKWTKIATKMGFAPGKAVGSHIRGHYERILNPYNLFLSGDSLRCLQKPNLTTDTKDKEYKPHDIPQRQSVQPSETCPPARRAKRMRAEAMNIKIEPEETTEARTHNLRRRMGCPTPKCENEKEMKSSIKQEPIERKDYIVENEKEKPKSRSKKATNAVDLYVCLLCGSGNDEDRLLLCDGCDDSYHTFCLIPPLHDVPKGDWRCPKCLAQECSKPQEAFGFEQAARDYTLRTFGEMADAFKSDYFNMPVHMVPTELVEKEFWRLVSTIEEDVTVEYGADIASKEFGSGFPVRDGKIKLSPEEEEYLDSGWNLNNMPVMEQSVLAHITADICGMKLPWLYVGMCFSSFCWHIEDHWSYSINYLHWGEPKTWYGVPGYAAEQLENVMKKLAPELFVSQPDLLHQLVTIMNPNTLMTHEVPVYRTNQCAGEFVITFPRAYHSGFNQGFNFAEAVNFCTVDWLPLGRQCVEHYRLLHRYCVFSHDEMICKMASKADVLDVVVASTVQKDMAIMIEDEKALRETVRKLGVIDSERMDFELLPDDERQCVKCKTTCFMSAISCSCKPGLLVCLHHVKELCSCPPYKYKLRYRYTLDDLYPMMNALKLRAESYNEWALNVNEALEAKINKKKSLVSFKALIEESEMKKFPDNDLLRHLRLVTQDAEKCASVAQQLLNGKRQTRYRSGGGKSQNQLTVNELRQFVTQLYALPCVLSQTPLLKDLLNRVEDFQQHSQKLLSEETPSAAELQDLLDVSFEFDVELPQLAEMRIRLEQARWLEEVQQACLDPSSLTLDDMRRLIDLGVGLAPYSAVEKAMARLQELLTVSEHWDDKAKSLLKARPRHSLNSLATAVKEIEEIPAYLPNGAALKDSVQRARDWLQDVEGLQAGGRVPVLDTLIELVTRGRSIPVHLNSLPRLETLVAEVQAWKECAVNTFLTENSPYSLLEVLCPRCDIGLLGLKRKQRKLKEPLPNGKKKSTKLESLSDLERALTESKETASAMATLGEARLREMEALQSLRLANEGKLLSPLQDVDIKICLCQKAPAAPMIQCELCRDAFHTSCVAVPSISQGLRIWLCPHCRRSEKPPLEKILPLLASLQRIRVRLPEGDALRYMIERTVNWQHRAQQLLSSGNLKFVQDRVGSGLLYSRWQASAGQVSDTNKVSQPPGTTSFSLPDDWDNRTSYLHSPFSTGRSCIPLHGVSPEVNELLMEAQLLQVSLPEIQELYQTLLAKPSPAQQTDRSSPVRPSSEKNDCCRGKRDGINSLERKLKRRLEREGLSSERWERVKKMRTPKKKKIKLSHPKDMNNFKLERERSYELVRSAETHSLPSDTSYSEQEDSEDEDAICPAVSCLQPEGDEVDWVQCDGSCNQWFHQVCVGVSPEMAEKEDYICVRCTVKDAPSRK
SMILES,Potency,"activity change, negative = inhibition"
COCCOC(=O)Cn1nnc2sc(-c3ccccc3)cc2c1=O,"inconclusive: 5.01 µM [inhibitor, partial curve, poor fit]",–
O=C(CC1CCCCC1)Nc1ccc(-c2nc3ccccc3s2)cc1,"inconclusive: 5.62 µM [inhibitor, partial curve, poor fit]",–
CC(C)C[C@H](NC(=O)c1csc2nc(-c3cccc(C(F)(F)F)c3)cn12)C(N)=O,"inconclusive: 39.8 µM [inhibitor, partial curve, poor fit]",–
CCOC(=O)c1ccc(NC(=O)CC2Nc3cc(C)c(C)cc3NC2=O)cc1 (stereo not given),"inconclusive: 31.6 µM [inhibitor, partial curve, poor fit]",–
O=C(COC(=O)c1cc(-c2ccc(F)cc2)nc2ccccc12)NC1CC1,"inconclusive: 1.78 µM [inhibitor, full curve, poor fit]",–
O=Cc1ccccc1-c1ccc(O)cc1,"inconclusive: 112 µM [inhibitor, partial curve, poor fit]",–
COc1ccc2cc(C(=O)NC(CC(C)C)C(=O)O)ccc2c1 (stereo not given),"inconclusive: 25.1 µM [inhibitor, partial curve, poor fit]",–
CCOC(=O)C1C(=O)C=C(/C=C/c2ccccc2)CC1c1ccccc1 (stereo not given),–,inactive: -22.2%
O=C(CC1COCCN1C(=O)c1ccc2nccnc2c1)N1CCCC1 (stereo not given),–,inactive: 7.28%
COc1ccc(NC(=O)c2nn(C)c3c2CSc2ccc(C)cc2-3)cc1OC,"inconclusive: 31.6 µM [inhibitor, partial curve, poor fit]",–
CN1CC(=O)N(C2CCCNC2)Cc2c(NCC(C)(C)C)ncnc21 (stereo not given),"inconclusive: 50.1 µM [inhibitor, partial curve, poor fit]",–
Cc1c(CC(=O)NC2CCOCC2)c2c(n1Cc1ccc(F)cc1)CCCC2=O,"inconclusive: 11.2 µM [inhibitor, partial curve, poor fit]",–
COC(=O)c1ccoc1COC(=O)CCc1ccc(OC)c(OC)c1,–,inactive: 14.1%
COc1ccc(-n2c(SCC(=O)NCc3ccccc3)nc3ccsc3c2=O)cc1,"inconclusive: 12.6 µM [inhibitor, partial curve, poor fit]",–
O=C(Nc1cccc(Cl)c1N1CCOCC1)c1ccc(Br)o1,"inconclusive: 39.8 µM [inhibitor, partial curve, poor fit]",–
CN(C)[S+](=O)([O-])c1ccc2c(c1)OCCN(Cc1ccccn1)C2,–,inactive: -20.4% [at 86.2 µM]
Cc1nc(CN2Cc3nc(-c4cnn(Cc5ccccc5)c4)ccc3OCC2=O)cs1,–,inactive: -24.7% [at 86.2 µM]
COc1ccc(S(=O)(=O)NCCc2sc(-c3ccccc3)nc2C)cc1OC,"inconclusive: 22.4 µM [inhibitor, partial curve, poor fit]",–
COc1ccccc1-c1c(C)nn2c(N)c(-c3ccccc3)cnc12,"inconclusive: 39.8 µM [inhibitor, single point]",–
CCc1ccccc1NC(=O)CSc1ncc2c(n1)-c1ccccc1N(C)S2(=O)=O,"inconclusive: 2.82 µM [inhibitor, partial curve, poor fit]",–
CCOc1ccc(-c2cc(C)n3nc(C(=O)Nc4cc(Cl)ccc4O)cc3n2)cc1,"inconclusive: 25.1 µM [inhibitor, partial curve, poor fit]",–
Cc1ccc(S(=O)(=O)N2CCCC(CCC(=O)N3CCc4ccccc4C3)C2)cc1 (stereo not given),"inconclusive: 22.4 µM [inhibitor, partial curve]",–

SMILES,Potency,"activity change, negative = inhibition"
CCC(=O)Nc1ccc(S(=O)(=O)NCc2cccn2Cc2cccc(C)c2)cc1,"inconclusive: 5.62 µM [inhibitor, partial curve, poor fit]",–
COc1ccccc1/C=C(\C#N)c1nc(-c2cc3ccccc3oc2=O)cs1,"inconclusive: 31.6 µM [inhibitor, single point]",–
O=C(CC1CC2CCC1C2)Nc1ccc(Cl)c(C(F)(F)F)c1 (stereo not given),–,inactive: -9.27%
Cc1ccc(Oc2ccccc2NC(=O)CC(C)(C)CC(=O)O)cc1,–,inactive: -3.47%
O=C(N/N=C/c1cc(Br)c(O)c(Br)c1)C1CC1,"inconclusive: 28.2 µM [inhibitor, partial curve, poor fit]",–
COCC(=O)N1CCN(Cc2nc(C(C)C)no2)CC1,–,inactive: -4.75%
CC(C)CN1C(=O)CCc2cc(NC(=O)c3ccc4c(c3)OCO4)ccc21,"inconclusive: 14.1 µM [inhibitor, partial curve, poor fit]",–
COc1ccc(-c2nc3cc(NC(=O)COc4ccc(F)cc4)ccc3o2)cc1,"inconclusive: 3.55 µM [inhibitor, full curve, poor fit]",–
CC(=O)NCCNC[C@@H]1C=C(C)[C@H](Cc2nnc(-c3ccccc3)o2)C[C@H]1C(C)C,–,inactive: -26% [at 86.2 µM]
CCOC(=O)CNC(=O)c1ccc(NC(C)=O)cc1,–,inactive: -12.8%
COc1ccc(NC(=O)Cn2ccn3nc4c(c3c2=O)CC(C)CC4)cc1Cl (stereo not given),"inconclusive: 39.8 µM [inhibitor, single point]",–
COc1ccc(-c2nc3ccccn3c2Cl)cc1,"inconclusive: 22.4 µM [inhibitor, partial curve, poor fit]",–
COCCn1cnc2ccc(-c3cccnc3OC)nc2c1=O,active: 39.8 µM,–
COc1nc(C(=O)N2CCOCC2(C)C)cc2ccccc12,–,inactive: 15.7%
Cc1ccc(C(=O)N2c3nc(-c4ccco4)nn3C3(CCCCC3)[C@@H]3CCCC[C@@H]32)cc1,"inconclusive: 44.7 µM [inhibitor, single point]",–
Cc1cc(NC(=O)c2cc3n(n2)CC(c2ccc(Cl)cc2)OC3)ccc1F (stereo not given),"inconclusive: 39.8 µM [inhibitor, partial curve]",–
CC(NC(=O)Cn1nc(C(=O)O)c2ccccc2c1=O)c1ccc(Cl)cc1Cl (stereo not given),–,inactive: 0.0579%
COCCN1C(=O)CS(=O)(=O)C12CCN(C(=O)c1ccc(C)c(F)c1)CC2,–,inactive: 19.4%
O=c1n(-c2ccc(C(F)(F)F)cc2)nc2n1CCN(Cc1ccc(C(F)(F)F)cc1)C2,"inconclusive: 44.7 µM [inhibitor, partial curve]",–
CCOC(=O)C(C(=O)OCC)=C(C(=O)OCC)C(=O)OCC,"inconclusive: 25.1 µM [inhibitor, partial curve, poor fit]",–
Cc1noc(-c2cn(C3CCN(C(=O)c4sccc4C)C3)nn2)n1 (stereo not given),–,inactive: 26.4%
CCN(C(=O)C(NS(=O)(=O)c1cccc2nsnc12)c1ccccc1)c1ccccc1 (stereo not given),–,inactive: -22.6%

SMILES,Potency,"activity change, negative = inhibition"
C[C@@]1(O)CCN(Cc2ccc3c4c(cccc24)C(=O)OC3)C[C@@H]1O,active: 28.2 µM,–
CCc1ccc2cc(-c3ccccc3)cn2c1,"inconclusive: 22.4 µM [inhibitor, partial curve, poor fit]",–
CCCCCc1ccc(-c2ccc(-c3ccc(/C=C/C#N)cc3)nc2)cc1,"inconclusive: 7.08 µM [inhibitor, full curve, poor fit]",–
COC(=O)c1cc2n(n1)CCCN(C(=O)c1cc(-c3ccccc3O)n[nH]1)C2,"inconclusive: 14.1 µM [inhibitor, partial curve, poor fit]",–
CCOC(=O)CN(C(=O)COc1nc(-c2ccccc2)cc(C)c1C#N)c1ccccc1,"inconclusive: 35.5 µM [inhibitor, partial curve, poor fit]",–
C[S+](=O)([O-])N1CC2(CCCN(C3CCCCC3)C2)Cc2ccccc21 (stereo not given),"inconclusive: 56.2 µM [inhibitor, partial curve, poor fit]",–
CCCCS(=O)(=O)N[C@@H]1CN(Cc2ccncc2)C[C@H]1CN(C)C,"inconclusive: 35.5 µM [inhibitor, single point]",–
Cc1cc(N2CCN(C(C(=O)O)c3c[nH]c4ccc(Cl)cc34)CC2)nc2ccccc12 (stereo not given),"inconclusive: 7.94 µM [inhibitor, single point]",–
CCOC(=O)CCNC(=O)c1ccc2c(c1)N(CC)C1CCCCCN1C2=O (stereo not given),"inconclusive: 28.2 µM [inhibitor, partial curve, poor fit]",–
Cc1cc(C)n(Cc2ccc(C(=O)NCC(=O)N3CCCCCNC(=O)CC3c3ccccc3)o2)n1 (stereo not given),"inconclusive: 20 µM [inhibitor, single point]",–
Nc1nc(N2CCOCC2)nc2c1C(C(=O)Nc1ccc(Cl)c(Cl)c1)CC(=O)N2 (stereo not given),"inconclusive: 6.31 µM [inhibitor, partial curve, poor fit]",–
COc1ccc(-c2ncc(CN3CCOC(c4cccnc4)C3)cn2)cc1 (stereo not given),active: 22.4 µM,–
Cc1ccc(CNC(=O)[C@H](Cc2ccccc2)NC(=O)c2ccco2)n1C,"inconclusive: 25.1 µM [inhibitor, single point]",–
Cc1ccc2[nH]c(C(=O)NCc3ccco3)cc2c1,"inconclusive: 15.8 µM [inhibitor, partial curve, poor fit]",–
COc1cccc(N2CCN(C(=O)CN3CCSc4ccc(S(=O)(=O)N(C)C)cc43)CC2)c1,"inconclusive: 28.2 µM [inhibitor, partial curve, poor fit]",–
CCCCCCn1nc(C(=O)OCC(=O)NCc2ccccc2F)c2ccccc2c1=O,"inconclusive: 28.2 µM [inhibitor, partial curve, poor fit]",–
CC1CCCN(CC2CCCCN2)C1 (stereo not given),"inconclusive: 39.8 µM [inhibitor, partial curve, poor fit]",–
COc1cc(-c2nccc3c(=O)cc(N4CCOCC4)oc23)ccn1,active: 25.1 µM,–
Brc1ccccc1CNCc1ccc(Cn2cncn2)cc1,–,inactive: -15.3%
COc1ccnc(-c2nnc3ccc(N4CCN(C(=O)c5ccco5)CC4)nn23)c1,"inconclusive: 35.5 µM [inhibitor, single point]",–
CC(c1ccc(F)cc1)n1c(-c2cnccn2)n[nH]c1=S (stereo not given),–,inactive: 9.49%
